The values that follow come from ChEMBL document CHEMBL1201862, “PubChem BioAssay data set” (2004).

The structures appear in SMILES notation.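 Five compound concentrations were applied to cells in 96-well plates for 48 hours; endpoints were derived by simple linear interpolation of the resulting dose-response curve. GI50 marks 50% less growth.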 Active and inactive are the calls of the source. No stated cut-off is given here; in the data, active = GI50 up to about 1.1 µM and inactive = higher.

The subject of this experiment is NCI-H322M. The experiment can be described thus: NCI tumour cell line growth inhibition, 48 h.
On to `Cn1c2ccccc2n2c(=O)c(-c3ccc(O)cc3)nnc12`, for which the GI50 was inactive: > 100 µM.
In the case of `CC(=O)OC(C)c1cc2c(s1)C(=O)c1sccc1C2=O` (configuration not stated), the GI50 was inactive: 1.95 µM.
Turning to `Cc1c(N=C(S)Nc2ccc(Cl)cc2)c(=O)n(-c2ccccc2)n1C`, the GI50 was inactive: > 100 µM.
On to `CNc1c2cccc(C)c2nc2c(C(=O)NCCN(C)C)cccc12`, for which the GI50 is active: 0.0668 µM.
In the case of `C/C(CC1SCCCS1)=C(/C)CC1SCCCS1`, the GI50 is inactive: > 100 µM.
For `C[C@H](CSC(=O)c1ccccc1)C(=O)N1c2ccccc2C[C@H]1C(=O)O`, the GI50 was inactive: > 100 µM.
Take `O=c1[nH]c(=O)n(COCCOCc2ccccc2)cc1Nc1ccccc1`: the GI50 is inactive: > 100 µM.
Turning to `CCOC(=O)/C=C/CC(C)(C)COC(C)=O`, the GI50 is inactive: > 10 µM.
With `COc1ccc2c(c1)Oc1cc(O)ccc1[C@H]2c1ccccc1C(=O)NC(C)c1ccccc1` (some centres not stated) the figure was inactive: 17.1 µM.
With `CCOC(=O)c1ccc(C(=O)/C(C(=O)OC(C)(C)C)=C2\CCCN2C)n1C` the figure was inactive: > 100 µM; with `CN(C)CCOc1ccc2c(c1)C/C(=C/c1ncc([N+](=O)[O-])n1C)C2=O`, inactive: 2.72 µM; with `O=C(C#CP(=O)(O)c1ccccc1)c1ccccc1`, inactive: > 100 µM.
The value for `CCCCC1(N=[N+]=[N-])C(=O)C2C=CC=C3c4ccccc4N(C1=O)C32` (configuration not stated) was inactive: 28.4 µM; that for `COc1ccc2c(c1)c1c(n2CCN2CCOCC2)-c2ccccc2CC1` was inactive: 53.5 µM; that for `COc1ccc(OC)c2c1C[C@@H]1C(C#N)N3[C@H](Cc4c(OC)ccc(OC)c4[C@@H]3C)C(=O)N1[C@H]2C` (some centres not stated) was inactive: 24.8 µM.
As for `CC(=S)NC=C(C(N)=O)C(N)=O`, the GI50 is inactive: > 100 µM.
With `Cc1ccccc1NC(=O)C(=O)C(C#N)c1ccc(Cl)cc1` (configuration not stated), the GI50 is inactive: 75.9 µM.
For `CCOC(=O)C1(c2ccccc2)CCC(=O)CC1`, the GI50 is inactive: > 100 µM.
For the compound `O=c1c2c3c(sc2nc2n1N=C(c1ccc(Br)cc1)CS2)CCCC3`, the GI50 is inactive: > 100 µM.
`CC(C)CC1NC(=O)C(C(C)C)NC(=O)CC(C)COC(=O)C(CC(C)C)N(C)C(=O)C(C(C)C)NC(=O)C(C(C)C)OC1=O` (configuration not stated): the GI50 is inactive: > 50 µM.
Regarding `CC(C)CCn1nc(N)c2nc3ccccc3nc21`, the GI50 is inactive: > 100 µM.
With `Cc1cc(C)n(CCNCCn2nc(C)cc2C)n1` the figure was inactive: > 100 µM; with `CCNc1nc(N)c(C(=O)c2ccc(Cl)cc2)s1`, inactive: 28.6 µM.
As to `Nc1ccc2c(c1)Oc1c(F)c(F)cc3c(=O)c(C(=O)O)cn-2c13`, the GI50 is inactive: 43.6 µM.
On to `Cc1ccc(N2C(=O)CC(=O)N(NC(=O)C(C)Oc3ccccc3C)C2=S)cc1` (configuration not stated), for which the GI50 is inactive: > 100 µM.
With `CCC(=O)NC(OCC1(CC)COC1)(C(F)(F)F)C(F)(F)F` the figure was inactive: > 100 µM; with `CC1=C(C(=O)Nc2ccccc2C)C(c2ccc(N(C)C)cc2)C(C(=O)Nc2ccccc2C)=C(C)N1`, inactive: 61.5 µM.
With `Cc1cc(S(=O)(=O)n2ccnc2Oc2ccccc2)c(SSc2cc(Cl)c(C)cc2S(=O)(=O)n2ccnc2Oc2ccccc2)cc1Cl` the figure was inactive: > 100 µM; with `Nc1ccccc1C#CC(=O)c1cccc(C(F)(F)F)c1`, inactive: 16.3 µM; with `CC1CCC2C(C(=O)O[C@H]3C4CCO[C@@H](OC5OC(CO)C(O)C(O)C5O)C4[C@@]4(CO)O[C@@H]34)=CO[C@@H](OC3OC(CO)C(O)C(O)C3O)C12` (some centres not stated), inactive: > 10 µM.
As to `COC(=O)C1=C(O)c2cc(OC)c(OC)c(OC)c2[C@H](c2cc(OC)c(OC)c(OC)c2)C1C(=O)OC` (some centres not stated), the GI50 was inactive: 86.5 µM.
On to `C=C1CC(Cn2cc(C)c(=O)[nH]c2=O)(c2ccc(-c3ccccc3)cc2)OC1=O` (configuration not stated), for which the GI50 is inactive: 5.7 µM.
